Experimental data as given in the RNAGym collection of RNA variant scans (doi:10.7554/elife.90254).
Read counts are not given, so values of variants with three or more changes are uncertain.

B1: LINE1-mini (parent)
chain: GGCAGAGCUCAACACAGCGUGGCAAAGUGGCUGUGGCUAGACUGCC

Variants of: B1
Experiment: self-cleavage, relative activity (ratio to wild type); higher = more cleavage; in vitro, sequencing; the parent is a self-cleaving ribozyme

For GGCCGAGGUCAACACAGCGUGGCAAAGUGGAUGUGGCUAGAUUGCC [A4C C8G C31A C42U], which self-cleavage is on record?
Its self-cleavage is 0.24.

For GGCAGAUCUCAACACAGCGUGGCAAAGUCGCUGUGCUUAGACUGCC [G7U G29C G36C C37U], which self-cleavage is on record?
The self-cleavage was 0.01.

Which self-cleavage does the source give for GGCAUAGCUGAACACAGCGUGGCAAAGUGGCAGUGGCUAGACUGCA [G5U C10G U32A C46A] here?
Its self-cleavage is 0.01.

Which self-cleavage does the source give for GGCAGAGCUCACCCCAGUCUGGCAAAGCGGCUGUGGCUAUCCUGCC [A12C A14C C18U G19C U28C G40U A41C] here?
Its self-cleavage is 0.02.

For GGCAGAGCUCAACACAGCGUGGUACAGUGGUUGUGGCUAGACCGCC [C23U A25C C31U U43C], which self-cleavage is on record?
Its self-cleavage is 0.03.

For GGCAGAGUUCAACAUAGCGGGGCAAAGUGGCUGUGGCUAUACUGCC [C8U C15U U20G G40U], which self-cleavage is on record?
The self-cleavage was 0.06.

Which self-cleavage does the source give for GGCAGAGCUCAACAGAGCGUGGCAAAGUGGGUGUGGCUCGACUGCC [C15G C31G A39C] here?
Its self-cleavage is 0.02.

For GGCAGAGCUCAACACUGCGUGGUAAAGUGGCAGUGGCUAGACUGCC [A16U C23U U32A], which self-cleavage is on record?
The self-cleavage was 0.15.

With GGCAGAGCUCAACACCGCGUGGCAAAGUGGCUGUGUUUAGACUGCC [A16C G36U C37U] as the variant, how does the self-cleavage read?
The self-cleavage was 0.03.

With GGCAGACCUCAACACAGCGCGGCAAAGUGGCUGUGGCCAGAAUGCC [G7C U20C U38C C42A] as the variant, how does the self-cleavage read?
The self-cleavage was 0.03.

Which self-cleavage does the source give for GGCCAAGCUACGCACAGCGUUGCAAAGUGGCUGUGGCUAGUCUGCC [A4C G5A C10A A11C A12G G21U A41U] here?
Its self-cleavage is 0.02.

With GGCAGAGCUCAACACAGCGUGGCACAGUGGCGGUGGCUAGACUGCA [A25C U32G C46A] as the variant, how does the self-cleavage read?
The self-cleavage was 0.18.

With GGCAGAGCUCAACACAGCGUGACAAAGUGGCUGUGGUUAUACUGCC [G22A C37U G40U] as the variant, how does the self-cleavage read?
The self-cleavage was 0.11.

Which self-cleavage does the source give for GGCAGAACUCAACACAGGGUUGCAAUGCGGCGGUGGCUAAACUGCC [G7A C18G G21U A26U U28C U32G G40A] here?
The self-cleavage was 0.08.

Which self-cleavage does the source give for GGCAGAGCUUAACACAGCGUGGCAAAGUGGCUGUGGCUUGACAGCC [C10U A39U U43A] here?
The self-cleavage was 0.02.

For GGCAGAGCUCACCACAGCGUGGCAAAGUGGCUGAGGCUAGAUUGCC [A12C U34A C42U], which self-cleavage is on record?
Its self-cleavage is 0.01.

For AGUAGAGCUCAACACAGGGUGACACAGUGGCUUUGGCUAGAUCGCC [G1A C3U C18G G22A A25C G33U C42U U43C], which self-cleavage is on record?
The self-cleavage was 0.07.
